Experimental data taken from PubChem BioAssay AID1508624 (National Center for Advancing Translational Sciences (NCATS), 2021).
Hit rate of the full screen: of about 48,000 compounds, about 120 (0.25%) were called active. About 4% were inconclusive and are not listed. Calls follow the shape of the dose curve; as a rule, active = well fitted activation curve with a large enough effect; inconclusive = small, poorly fitted or top-dose-only effect, or another doubt; inactive = no such curve, though single readings can be large or run the other way. The list shows a part of the results.

test: Primary qHTS for Identification of Small Molecule Activators of Huntingtin-Antisense Promoter Activity; details: HEK293 HTT-AS promoter firefly luciferase reporter (activity 0% = vehicle and -100% = no light), 24 h; series mostly up to 57.5 µM; activity change, positive = activation: at the top concentration; also: nearly all actives have a fitted effect of over 55% in size
Method in brief: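 Firefly luciferase signal from promoter-reporter HEK293 cells was scaled between vehicle (0%) and zero RLU (-100%). Compounds were tested at final concentrations of up to 57.5 uM over 24 h at 37 degrees C. PTC124 at 50 uM final served as control inhibitor.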

Row | SMILES | activity change, positive = activation
1 | COc1ccc(CNC(=O)CN2N=C(c3ccc(Cl)cc3)CCC2=O)cc1 | inactive: -10.8%
2 | CCc1ccc(C(=O)c2cn(CC(=O)NCCc3ccccc3)c3nc(C)ccc3c2=O)cc1 | inactive: -9.62%
3 | COc1cccc(NC(=O)C2CCCN(c3ncnc4onc(-c5ccc(F)cc5)c34)C2)c1 (centres undefined) | inactive: -5.06%
4 | COc1ccc(-c2onc(C)c2C)cc1S(=O)(=O)NCc1cccs1 | inactive: -19.6%
5 | CCOC(=O)c1noc2ncn(CC(=O)Nc3ccc(F)cc3Cl)c(=O)c12 | inactive: -2.9%
6 | CCOc1ccc(C(=O)Nc2ccc3c(c2)CCCN3S(=O)(=O)c2ccc(C)cc2)cc1 | inactive: -1.05%
7 | CC1CCCCN1Cc1c(O)ccc2c(=O)c(-c3ccc(Cl)cc3)c(C(F)(F)F)oc12 (centres undefined) | inactive: -15.4%
8 | CC1=C(C(=O)OCc2ccc(C)cc2)C(c2ccccc2C(F)(F)F)CC(=O)N1 (centres undefined) | inactive: -32.1%
9 | Cc1ccc(OCCSc2nc3ccccc3n2CC(=O)N2CCOCC2)cc1 | inactive: -15.3%
10 | C#C[C@]1(O)CC[C@H]2[C@@H]3CCC4=CC(=O)CC[C@@H]4[C@H]3CC[C@@]21C | inactive: -7.22%
11 | CCOC(=O)c1sc2ncn(CC(=O)Nc3ccc(F)cc3F)c(=O)c2c1C | inactive: -2.34%
12 | COC(=O)c1c(NC(=O)c2ccc(Cl)c(Cl)c2)sc2c1CCCC2 | inactive: 11.7%
13 | CCOc1ccc(NC(=O)CSc2nnc3scc(-c4ccccc4)n23)cc1 | inactive: -11.4%
14 | Cc1ccc(-n2ncc(C(=O)Nc3ccc4c(c3)OCCO4)c2C2CCN(C(=O)OC(C)(C)C)CC2)cc1C | inactive: -8.3%
15 | CC1=C(C(=O)NCc2cccc(F)c2)C2(CCCCCC2)OC1=O | inactive: -13.2%
16 | COc1ccc(CNC(=O)c2cc(-c3ccc(Br)s3)nc3ccccc23)c(OC)c1 | inactive: -16%
17 | COc1ccccc1N1CCN(C(=O)Cn2ncc3c2-c2cc(C)ccc2OC3)CC1 | inactive: -36.6%
18 | COc1ccc(Nc2nc3ccc(C)cc3nc2-n2nc(C)cc2C)cc1Cl | inactive: -3.61%
19 | COCCN1CCc2nc(SCC(=O)Nc3ccc(C)c(Cl)c3)[nH]c(=O)c2C1 | inactive: 17.7%
20 | COc1ccccc1NC(=O)CC1Sc2ccc(C(F)(F)F)cc2NC1=O (centres undefined) | inactive: -16.8%
21 | CCOc1ccccc1CNC(=O)Cn1c(=O)c2cccn2c2ccc(F)cc21 | inactive: 0.853%
22 | COc1ccc(CCNc2ncnc3c2c(-c2ccccc2)cn3-c2ccc(Cl)cc2)cc1OC | inactive: -41.2%
23 | CCOC(=O)CSc1nc2ccc(NC(=O)c3ccc(Cl)cc3)cc2s1 | inactive: 20.5%
24 | Cc1cc2c(cc1C1(c3ccc(C(=O)O)cn3)CC1)C(C)(C)CCC2(C)C | inactive: 5.71%
25 | COc1cc(CN(C(=O)c2ccc(OC(C)C)cc2)c2ccccn2)cc(OC)c1OC | inactive: -54.1%

Row | SMILES | activity change, positive = activation
26 | COc1cccc(-c2nc(CS(=O)(=O)CC(=O)Nc3cccc(C(C)=O)c3)c(C)o2)c1 | inactive: -33.8%
27 | COC(=O)c1ccc(NC(=O)C2CCN(c3ncnc4c3nc3n4CCCCC3)CC2)cc1 | inactive: -8.63%
28 | Cc1cc(C)cc(NC(=O)CSc2c(C(C)C)cnc3c2c(=O)n(C)c(=O)n3C)c1 | inactive: -13.1%
29 | Cc1cc(Nc2nc3ccccc3c3nnc(C)n23)ccc1Br | inactive: 4.96%
30 | Cc1cc(C)cc(Nc2cc(C(=O)NC3CCCCC3)c3ccccc3n2)c1 | inactive: -13.2%
31 | COc1ccc(C)cc1NC(=O)c1cc(S(=O)(=O)N2CCC(C)CC2)ccc1F | inactive: -7.72%
32 | CCOC(=O)c1ccccc1NC(=O)CSc1nnc(CC)n2c1cc1occc12 | inactive: -20.4%
33 | CCCCc1ccc(C(=O)Nc2ccc3nc(N4CCN(CC)CC4)cc(C)c3c2)cc1 | inactive: -15.6%
34 | O=C(O)CNC(=O)c1ccccc1 | inactive: -3.67%
35 | Fc1ccc(-c2cc3ncc4c(n3n2)-c2cc(Cl)ccc2OC4)cc1 | inactive: -4.2%
36 | Nc1cc(C(F)(F)F)ccc1S | inactive: -7.38%
37 | Cc1oc(-c2ccccc2F)nc1Cn1c(SCc2cccc(C(F)(F)F)c2)nc2ccncc21 | inactive: -27.1%
38 | CCc1ccccc1NC(=O)c1cc(-c2ccc(Cl)s2)nc2ccccc12 | inactive: -20.4%
39 | O=C1CC[C@@H](C(=O)O)N1 | inactive: -9.85%
40 | O=C(Nc1ccccc1F)c1cnc(N2CCCCC2)c2ccccc12 | inactive: -30.5%
41 | CCOc1ccccc1NC(=O)Cn1c(=O)n(Cc2ccc(OC)cc2)c(=O)c2oc3ccccc3c21 | inactive: -1.21%
42 | COc1ccc(OC)c(CNC(=O)CCCn2c(=O)c3cccn3c3cccnc32)c1 | inactive: 5.96%
43 | COc1ccccc1-c1nnc(C2CCN(C(=O)c3ccccc3C)CC2)o1 | inactive: -13.4%
44 | COc1ccc(N(CC(=O)Nc2cc(OC)cc(OC)c2)S(=O)(=O)c2c(C)noc2C)cc1 | inactive: -37.5%
45 | Cc1cc2c(cc1S(=O)(=O)Nc1ccc(C(C)C)cc1)OCCN2C | inactive: -42.5%
46 | Cc1ccc(O)c(NC(=O)CCS(=O)(=O)c2nc(-c3cccs3)cc(C(F)(F)F)n2)c1 | inactive: -66.9%
47 | Cc1cccc(-n2c(C)cc(C(=O)C(=O)Nc3nncs3)c2C)c1 | inactive: 9.46%
48 | Cc1ccc(C(C)C)c(OCC(=O)Nc2cc(-c3nc4ccccc4[nH]3)ccc2C)c1 | inactive: -41.9%
49 | Cc1cccc(-n2cnc3cc(C(=O)NCc4ccccc4Cl)ccc32)c1 | inactive: -26.4%
50 | CCN(C(=O)c1coc(=O)c2ccccc12)c1ccccc1C | inactive: -11.8%

Row | SMILES | activity change, positive = activation
51 | CC(C)c1ccc(C(=O)Nc2cc(-c3ccccc3F)nn2-c2ccccc2)cc1 | inactive: -19.1%
52 | Cc1ccc(-c2nnn3c2nc(NCCc2ccc(Cl)cc2)c2ccccc23)cc1 | inactive: 6.52%
53 | CCCOc1ccc(CNC(=O)Cn2ncn3c(cc4sc(CC)cc43)c2=O)cc1 | inactive: 4.69%
54 | CCOc1ccc(CNCc2c(C(=O)O)n(Cc3ccc(C)cc3)c3cc(C)ccc23)cc1 | inactive: -42.1%
55 | Cc1c(Cl)cccc1NC(=O)CN(CCc1ccccc1)S(=O)(=O)c1ccccc1 | inactive: -35.3%
56 | Cc1ccccc1Nc1ncnc2c1cnn2C | inactive: 3.32%
57 | CCCCN(CC)CCNC(=O)c1cc2c(=O)[nH]c3ccccc3c2n1C | inactive: -11.8%
58 | Cc1cccc(C(=O)N2CCc3cc(CNS(=O)(=O)c4ccc(Cl)s4)ccc32)c1 | inactive: -29.7%
59 | O=C(NCc1ccc(F)cc1)c1ccc2c(O)c(S(=O)(=O)c3ccccc3)c(=O)[nH]c2c1 | inactive: -3.11%
60 | CCCCn1c(NCc2ccc(OC)cc2O)nc2ccccc21 | inactive: -17.7%
61 | Cc1ccccc1NS(=O)(=O)c1ccc2[nH]cc(C(=O)N3CCCCC3)c(=O)c2c1 | inactive: -12.7%
62 | COc1ccc(C)cc1-n1nnc(-c2nc(-c3ccccc3Cl)no2)c1N | inactive: 7.58%
63 | O=C(NCc1ccccc1)c1ccc(CSc2nc3cccnc3n2Cc2cccc(F)c2)cc1 | inactive: -23.9%
64 | CCCCn1nc(NC(=O)c2cccc(Cl)c2)c2cc3ccccc3nc21 | inactive: 0%
65 | CCCc1nc2ccccc2n2c(-c3ccccc3)c3c(=O)n(C)c(=O)n(C)c3c12 | inactive: -23%
66 | Cc1ccccc1CN1C(=O)c2ccccc2Sc2ccc(C(=O)N3CCCC3)cc21 | inactive: -34.3%
67 | O=c1c(S(=O)(=O)c2ccccc2)cn(Cc2cccc(F)c2)c2cc(N3CCOCC3)c(F)cc12 | inactive: -30.3%
68 | COc1ccc(OC(=O)c2nc(SCc3ccc(F)cc3)ncc2Cl)cc1 | inactive: -2.5%
69 | CCOc1ccc(NC(=O)c2cnn3c2NC(c2cccc(OC)c2)=CC3c2ccccc2)cc1 (centres undefined) | inactive: -35.3%
70 | Cc1ccc(C2=NN(CC(=O)NCCC(C)C)C(=O)CC2)cc1 | inactive: -7.41%
71 | COc1cccc(-c2nnc(-c3ccccc3NC(=O)c3cccc(C(F)(F)F)c3)o2)c1 | inactive: -7.44%
72 | CCOC(=O)c1cc(OC(=O)c2ccc(C)cc2)n(-c2ccccc2)n1 | inactive: -9.08%
73 | COc1ccc(NC(=O)c2ccco2)cc1NC(=O)COc1ccccc1 | inactive: -7.39%
74 | CCOC(=O)c1ccc(NC(=O)c2c(NCc3cccs3)sc3c2CCCC3)cc1 | inactive: -17.2%
75 | CCc1ccc(S(=O)(=O)c2cn(C)c3cc(N4CCC(C)CC4)c(F)cc3c2=O)cc1 | inactive: -10.1%

Row | SMILES | activity change, positive = activation
76 | Cn1c(=O)n(C)c2cc(N3CCOCC3)c(NC(=O)c3ccccc3Br)cc21 | inactive: -12%
77 | COc1ccc(CNC(=O)CN2C(=O)CSc3ccc(S(=O)(=O)N4CCOCC4)cc32)c(OC)c1 | inactive: -7.83%
78 | COc1cccc(CNC(=O)c2cc(S(=O)(=O)N3CCCCC3)cn2C)c1 | inactive: -14%
79 | CC(=O)Nc1ccc(NC(=O)CSc2nc3ccccc3nc2N2CCC(C)CC2)cc1 | inactive: -12.9%
80 | O=C(c1ccc(C=Cc2n[nH]c3ccccc23)cc1)N1CCNCC1 | inactive: 27.7%
81 | Cc1c(C(=O)N2CCCCCC2)c(S(=O)(=O)NCc2ccc(Br)cc2)c(C)n1C | inactive: -21.3%
82 | COC(=O)C1=C(C)NC(C)=C(C(=O)OC)C1c1ccccc1[N+](=O)[O-] | inactive: 28.4%
83 | Cc1ccc(-c2nc3ccccn3c2Nc2ccccc2C)s1 | inactive: -13.2%
84 | CCOc1ccc(CNC(=O)c2ccc3nc(C(C)C)oc3c2)cc1 | inactive: 7.16%
85 | COC(=O)c1ccc(NC(=O)NCCn2nnc3cc(S(=O)(=O)N(C)C)ccc32)cc1 | inactive: -6.56%
86 | CCOc1ccccc1C(=O)Nc1c(C(=O)Nc2ccc(F)cc2)oc2ccccc12 | inactive: -38.1%
87 | Cn1c(=O)c(=O)n(C)c2cc(S(=O)(=O)CCC(=O)Nc3ccc(F)cc3)ccc21 | inactive: -5.41%
88 | CCOc1ccc(C2Nc3c(C)cccc3-c3cc(C)nn32)cc1 (centres undefined) | inactive: -26.1%
89 | Cc1oc2ncnc(N3CCOCC3)c2c1C(=O)N(Cc1ccccc1)C(C)C | inactive: -10.9%
90 | COc1ccc(S(=O)(=O)NCC(c2ccco2)S(=O)(=O)c2cccs2)cc1C (centres undefined) | inactive: -14.1%
91 | CC1CCC(NC(=O)c2cc3c(Cl)nc4ccccc4c3s2)CC1 (centres undefined) | inactive: -8.27%
92 | O=C(Cn1ccc2cc(S(=O)(=O)N3CCCCC3)ccc21)NCc1cccc(Cl)c1 | inactive: -40.8%
93 | CC(=O)Nc1ccccc1-c1nc2ccccc2n(Cc2cccc(Br)c2)c1=O | inactive: -8.78%
94 | CCOc1ccccc1NC(=O)Cn1c(=O)n(Cc2ccccc2)c(=O)c2cccnc21 | inactive: -13%
95 | Cc1cc(C)c(NC(=O)Cn2nnc(-c3ccccc3)n2)c(C)c1 | inactive: -9.76%
96 | Cc1cc(S(=O)(=O)NCC(c2ccco2)S(=O)(=O)c2ccccc2)ccc1F (centres undefined) | inactive: -9.51%
97 | CCOC(=O)C(C)NC(=O)C1CCN(c2ncnc3c2nc2n3CCCCC2)CC1 (centres undefined) | inactive: 4.48%
98 | O=C(CN1CCCN(Cc2ccccc2Cl)S1(=O)=O)NCc1ccccc1 | inactive: -11.5%
99 | Cc1cccn2c(=O)cc(COc3cccc(NC(=O)COc4ccc(F)cc4)c3)nc12 | inactive: 4.03%
